About 65 (0.1%) of roughly 45,000 compounds were called active. The call rests on the fitted dose curve; in most records, active means well fitted activation curve with a large enough effect; inconclusive means small, poorly fitted or top-dose-only effect; inactive means no such curve, though single readings can be large or run the other way. The list shows a part of the results.

Sequence of UniProt P54803 (P54803 whole entry, looked up): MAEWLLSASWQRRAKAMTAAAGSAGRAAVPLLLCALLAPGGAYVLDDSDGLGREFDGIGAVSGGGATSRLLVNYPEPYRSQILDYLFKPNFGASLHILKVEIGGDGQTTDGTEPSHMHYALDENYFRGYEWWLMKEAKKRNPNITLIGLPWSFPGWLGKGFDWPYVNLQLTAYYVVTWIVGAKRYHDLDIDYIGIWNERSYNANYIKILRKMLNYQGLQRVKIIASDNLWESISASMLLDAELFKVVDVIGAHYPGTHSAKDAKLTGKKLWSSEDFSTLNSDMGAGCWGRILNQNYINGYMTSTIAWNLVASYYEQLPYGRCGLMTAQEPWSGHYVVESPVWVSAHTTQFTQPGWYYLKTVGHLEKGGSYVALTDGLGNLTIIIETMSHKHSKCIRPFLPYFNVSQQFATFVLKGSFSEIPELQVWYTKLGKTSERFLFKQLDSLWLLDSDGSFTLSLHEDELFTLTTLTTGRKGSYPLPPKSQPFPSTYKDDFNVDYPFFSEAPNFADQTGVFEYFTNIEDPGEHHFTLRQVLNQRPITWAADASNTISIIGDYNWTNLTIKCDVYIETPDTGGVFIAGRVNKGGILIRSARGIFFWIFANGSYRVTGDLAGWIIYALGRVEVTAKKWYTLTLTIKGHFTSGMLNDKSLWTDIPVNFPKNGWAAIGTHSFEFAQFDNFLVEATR

The target of the experiment is Galactocerebrosidase (Homo sapiens) (UniProt P54803). The experiment in a line: A Novel Cell-Based Assay to Identify Small Molecules for B -Galactocerebrosidase. Further: 0% is about no effect; nearly all actives have a fitted effect of over 65% in size. The note with it: 145M-Twi-hGALC-G270D cells (Twitcher mouse brain line with human GALC G270D), HMU-beta-Gal fluorescence, 48 h; series mostly up to 57.5 µM; activation: at the top concentration. Summed up:
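Brain-derived Twitcher mouse 145M-Twi cells stably expressing human GALC-G270D or wild-type GALC, treated live, then residual GALC activity read by fluorescence of HMU-b-Gal substrate (0.1 mM final) in citrate-phosphate buffer pH 5.2 with sodium taurocholate. Signal increase indicates enhancement.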
On to `COc1cccc(N2CC(NC(=O)/C=C\c3ccc4c(c3)OCO4)CC2=O)c1` (stereo not drawn), for which the “activation” value is inactive: -12.6%. Consider `COc1ccc(-n2nc(C(=O)N3CCN(c4ccccc4OC)CC3)c3c4ccccc4n(C)c3c2=O)cc1`, for which the “activation” value was inactive: -13%.

Regarding `CCOC(=O)c1ccc(NC(=O)C(CC)Sc2nc3ncccc3[nH]2)cc1` (stereo not drawn), the “activation” value was inactive: -7.64%. As to `COc1ccc(N2CC(NC(=O)c3ccc(S(=O)(=O)N4CCCC4)cc3)CC2=O)cc1` (stereo not drawn), the “activation” value was inactive: -1.94%.

For the compound `CCCCNS(=O)(=O)c1ccc2nc(NC(=O)c3cccnc3)sc2c1`, the “activation” value is inactive: -1.9%. Regarding `C/C(=C(/OCCOc1ccc(Cl)cc1)c1ccc(Cl)cc1Cl)n1ccnc1`, the “activation” value was inactive: -11.5%. Consider `CCc1ccccc1NC(=O)CN1C(=O)CCc2cc(S(=O)(=O)N3CCCCC3)ccc21`, for which the “activation” value was inactive: 3.99%. On to `Cc1ccc(CNC(=O)c2ccc(CSCc3ccc(Cl)cc3)o2)cc1`, for which the “activation” value was inactive: -11.2%. Regarding `Cn1c(=O)oc2cc(S(=O)(=O)N3CCCC(C(=O)Nc4ccc(Br)cc4F)C3)ccc21` (stereo not drawn), the “activation” value was inactive: -3.08%. Regarding `O=C(Nc1cc(C(F)(F)F)ccc1Cl)c1cc2nc(-c3ccc4c(c3)OCO4)cc(C(F)(F)F)n2n1`, the “activation” value was inactive: -16.7%. As for `CCOc1ccccc1C(=O)Nc1c(NC)c2ccccc2oc1=O`, the “activation” value is inactive: -8.46%. For `Cc1ccc(-n2ccnc(NCc3ccccc3)c2=O)cc1C`, the “activation” value is inactive: -11.6%. On to `O=C(NCc1cccc(F)c1)C1=Cc2cc(Br)ccc2OC1`, for which the “activation” value was inactive: -13.7%. As to `O=C(CSc1nc2c(oc3ccccc32)c(=O)n1Cc1ccco1)Nc1cccc(Cl)c1`, the “activation” value was inactive: -13.5%. Under `COc1ccc(N(CC(=O)NCc2ccc(F)cc2)S(=O)(=O)c2c(C)n[nH]c2C)cc1` stands inactive: -12.7%; under `COc1ccc(OCCCn2c(=O)oc3ccc(C)cc32)cc1`, inactive: -13.8%; under `CCc1ccc(NC(=O)c2ccc(F)c(S(=O)(=O)N3CCC(C)CC3)c2)cc1`, inactive: -2.72%. `Cc1ccc(C)c(Cn2nnc(C(=O)NCc3ccc(Cl)cc3Cl)c2N)c1`: the “activation” value is inactive: -18.7%. For `Cc1cc(C)cc(NC(=O)CN2C(=O)c3ccccc3Sc3ccc(C(=O)N4CCOCC4)cc32)c1`, the “activation” value is inactive: -9.08%.

Turning to `COc1cc2c(cc1NS(=O)(=O)c1cccc(C#N)c1)n(C)c(=O)n2C`, the “activation” value is inactive: -4.23%. As for `Cc1cn(C)c(CC(=O)Nc2cccc(Cl)c2C)c1C(=O)O`, the “activation” value is inactive: -7.66%. With `COc1ccc(CCNC(=O)CCCCCn2c(SCC(N)=O)nc3cc4c(cc3c2=O)OCO4)cc1OC`, the “activation” value was inactive: -18.7%.

Turning to `Cc1ccc(S(=O)(=O)N2CCCc3cc(NC(=O)c4ccccc4Cl)ccc32)cc1`, the “activation” value was inactive: -10.3%.

On to `CCN(CC)S(=O)(=O)c1ccc2c(c1)N(CC(=O)Nc1ccc(F)cc1)C(=O)CO2`, for which the “activation” value is inactive: -16.3%. Under `CCCCc1oc2ccc(NS(C)(=O)=O)cc2c1C(=O)c1ccc(OCCCN(CCCC)CCCC)cc1` stands inactive: -12.9%; under `Cc1ccc(C)c(N(C)C(=O)C2CCN(c3ncnc4c3nc3n4CCCCC3)CC2)c1`, inactive: -4.05%. With `CCN(CC)S(=O)(=O)c1nnc(NC(=O)COc2cccc(C)c2)s1`, the “activation” value was inactive: -2.29%. With `Cn1cnc(S(=O)(=O)N2CCCC(C(=O)Nc3cccc(C#N)c3)C2)c1` (stereo not drawn), the “activation” value is inactive: -14.4%. In the case of `COc1ccc(NC(=O)N(Cc2nnc3n2CCCCC3)c2ccc(OC)c(Cl)c2)cc1`, the “activation” value is inactive: -0.0488%. Under `O=C(Nc1c(C(=O)c2ccc(F)cc2)oc2ccccc12)c1cc(-c2ccccc2)on1` stands inactive: 29.3%. `COc1cccc(N2CCN(c3ccc4nnc(CCC(=O)O)n4n3)CC2)c1`: the “activation” value is inactive: -7.29%.

In the case of `CCc1ccc(S(=O)(=O)c2c(C(=O)c3ccc(C)c(C)c3)cnc3ccccc23)cc1`, the “activation” value is inactive: -17.5%.

For the compound `CCOc1ccc(CNC(=O)c2ccc3nc(CC)c(CC)nc3c2)cc1OC`, the “activation” value was inactive: -1.99%.

On to `CCn1c(=O)cc(OCC(=O)Nc2cc(OC)c(OC)c(OC)c2)c2ccccc21`, for which the “activation” value was inactive: -14.5%. As to `COCCNC(=O)CSc1nc2ccccc2nc1Cc1ccc(C)cc1`, the “activation” value was inactive: -1.2%.

With `O=C(Cn1c(=O)n(-c2ccccc2)c(=O)c2c3c(sc21)CCCC3)Nc1cccc(F)c1`, the “activation” value is inactive: -10.8%.

Turning to `CN(C)c1ccc(CNC(=O)c2ccc(NC(=O)c3nsc4ccccc34)cc2)cc1`, the “activation” value is inactive: -5%. For the compound `COc1cccc(Cc2nc3ccccc3nc2SCC(=O)Nc2ccccc2F)c1`, the “activation” value is inactive: -9.78%. As for `Cc1cccc(NC(=O)Cn2c(=O)n(CCc3ccccc3)c(=O)c3sc4ccccc4c32)c1`, the “activation” value is inactive: -3.15%. For `CC(C)C1N=C2c3ccccc3N=C(SCC(=O)NCc3ccc(F)cc3)N2C1=O` (stereo not drawn), the “activation” value was inactive: -28.1%. On to `CCC12CN3CC(C)(CN(C1)C3c1c(C)n(C)c3ccccc13)C2=O` (stereo not drawn), for which the “activation” value is inactive: -7.56%. As to `Cc1c(C(=O)NCc2ccccc2Cl)cccc1-n1cnc2cccnc21`, the “activation” value is inactive: -16.4%. In the case of `Cc1cccc(CNC(=O)c2ccc3nc(-c4ccccc4)c(-c4ccccc4)nc3c2)c1`, the “activation” value is inactive: -7.63%. Regarding `CCC1(c2ccccc2)C(=O)NCNC1=O`, the “activation” value was inactive: -17.2%. In the case of `COc1cc(NC(=O)c2cc(C3CC3)nc3c2c(C)nn3-c2ccc(C)cc2)cc(OC)c1`, the “activation” value was inactive: -11.3%. Then `Nc1c(-c2nc(-c3ccc(Cl)cc3)no2)nnn1-c1ccc(C(F)(F)F)c(Cl)c1`, with inactive: -5.57%. Consider `Cc1cccc(C)c1OCc1nc2c3cnn(-c4ccccc4Br)c3ncn2n1`, for which the “activation” value is inactive: 4.8%.

As to `O=C(CSc1nc2c([nH]c3ccccc32)c(=O)n1-c1ccc(F)cc1)N1CCCc2ccccc21`, the “activation” value is inactive: -1.42%.

The values above are taken from PubChem BioAssay AID1159614 (National Center for Advancing Translational Sciences (NCATS), 2016).
